Measured values from the supplement of paper PMC10185492.
Some of the results follow. Values come from read counts of a selection and are noisy.

Tested on: SARS-CoV-2 3CLpro (nsp5)
Test: substrate phage enrichment score (protease-eluted vs HEPES control, +1 offset) (ratio); higher = better cleaved substrate
Settings: selection round: 3; protease elution time: 0.5 h
Description: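 Random heptapeptide substrate phage display (M13 pIII fusion, heptapeptide between an N-terminal biotinylated AviTag GLNDIFEAQKIEWHE and pIII; phages immobilised on streptavidin) eluted by cleavage with 50 nM protease in 20 mM HEPES at 37 °C. Selected phages were NGS sequenced, and the enrichment score is (reads in protease sample + 1)/(reads in HEPES blank-selection control + 1).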

| Substance | substrate phage enrichment score |
| --- | --- |
| DLSGRSR | > 25 |
| TGVSRNL | 1.37 |
| RNGNRAT | > 31 |
| SYNGTNL | 1.88 |
| QAEWNYV | > 30 |
| HATQEPY | 0.0476 |
| TRTSMKQ | 1.16 |
| MQECHCP | 3.44 |
| VGRTSLQ | > 66 |
| AMAAHHH | 1.67 |
| KPAPSSP | 5 |
| ESIPTAS | 2.26 |
| NAVPFLR | > 46 |
| LNVEDTA | 0.941 |
| NSGELDT | 16.5 |
| INSPLLQ | > 24 |
| RRRPSLQ | > 63 |
| AFQGGSA | 0.667 |
| TKLQKNP | > 24 |
| WLGNLQN | 6.5 |
| LLSPNRC | > 27 |
| QNISGQW | 1.09 |
| LPPTDSW | 5 |

| Substance | substrate phage enrichment score |
| --- | --- |
| GLQEMDE | > 23 |
| VKKDVSD | > 30 |
| SELKGTD | > 39 |
| QFRGKNT | 0.1 |
| FGFSRLQ | > 36 |
| NYREAAC | > 33 |
| KDTLCKM | 2 |
| MRTVLPS | > 21 |
| TEAAHHH | 0.57 |
| ERALNLD | > 32 |
| SQETTCQ | 1.88 |
| GRECTLQ | > 40 |
| LNFQGGS | 1.71 |
| RNRRERC | 1.56 |
| LYFQGGR | 0.846 |
| GRTSSSP | 1.38 |
| ALKPLTK | > 23 |
| KRQYMLS | > 35 |
| TVLIKTQ | 1.67 |
| ESHAERS | 0.25 |
| TSAAHHH | 1.5 |
| SCAPTLR | > 26 |
| CATAHHH | 2.58 |

| Substance | substrate phage enrichment score |
| --- | --- |
| PRSMKIE | > 22 |
| SKGGCTL | 0.522 |
| SFQGGSA | 0.727 |
| RPAAHHH | 1.3 |
| TYPQAQH | 1.18 |
| LQANGQQ | > 37 |
| SPNNSLC | 23.5 |
| RAAAPHH | 1.11 |
| TNFQGGS | 3 |
| SAPLGNR | > 27 |
| IFRVVVR | 0.525 |
| CVMKTGP | 1.79 |
| PNTDVNN | 3.6 |
| GHGQTSA | 8.33 |
| RPYFQGG | 2.57 |
| LSPTVLH | > 39 |
| WRDTNLQ | 4.5 |
| RNMTEWS | 3.8 |
| HLGNSAR | 1.4 |
| KTTLKPG | 17 |
| SRESQCN | 3.25 |
| SADAHHH | 1.19 |
| NTTAHHH | 0.429 |

| Substance | substrate phage enrichment score |
| --- | --- |
| GRAAAHH | 1.07 |
| NKTTLMN | > 22 |
| WQPSKLQ | > 104 |
| GDTAHWR | 2.31 |
| QRFNVTD | > 29 |
| PHHHHGA | 1 |
| EEAAHHH | 0.643 |
| KQYFQGG | 0.577 |
| SRCSCAH | > 37 |
| TTSKSLY | 6.67 |
| RTFTHRG | 12 |
| DHHHGAA | 5.17 |
| SILQGSA | 17.5 |
| CAWPIHR | 3.67 |
| FSFEPGP | > 21 |
| VKSAYDT | 11 |
| WLLESGG | 3.62 |
| SNTDAPE | 5 |
| VMMMCGR | 1.32 |
| AEQCGTS | > 24 |
| FTAAHHH | 1.21 |
| QYFQGGS | 1.29 |
| DFTPTAR | 3.29 |

| Substance | substrate phage enrichment score |
| --- | --- |
| TGRIGNC | 0.529 |
| PSYAIFQ | > 31 |
| LETKLQS | > 47 |
| LQNLNPT | 0.4 |
| HGQLNVN | > 36 |
| LTGESWH | 15.5 |
| SAAAHNN | 0.733 |
| SAAPHHQ | 1.13 |
| KHGQPCR | > 23 |
| CPHESRS | > 69 |
| PSTRLQS | > 160 |
| SAAHHHH | 1.04 |
| EGSRAPC | 3.39 |
| RAAAQHH | 0.911 |
| RVPLSRN | 1.64 |
| VVAAHHH | 0.6 |
| AESRMDL | 2.5 |
| CERAVMQ | 0.685 |
| GCPTSKA | > 22 |
| KWSGPRL | > 51 |
| ERHTPAL | 1.38 |
| GKSQNPR | 2.36 |
